Screen size: about 45,000 compounds; about 65 (0.1%) were called active. Calls follow the shape of the dose curve; as a rule, active = well fitted activation curve with a large enough effect; inconclusive = small, poorly fitted or top-dose-only effect; inactive = no such curve, though single readings can be large or run the other way. The list shows a part of the results.

The target of this test is Galactocerebrosidase (Homo sapiens) (UniProt P54803). In words: A Novel Cell-Based Assay to Identify Small Molecules for B -Galactocerebrosidase. Also: 0% is about no effect; nearly all actives have a fitted effect of over 65% in size. The following applies: 145M-Twi-hGALC-G270D cells (Twitcher mouse brain line with human GALC G270D), HMU-beta-Gal fluorescence, 48 h; series mostly up to 57.5 µM; activation: at the top concentration. The procedure, abridged: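 Live 145M-Twi cells (Twitcher mouse brain-derived, GALC-null) stably expressing human GALC-G270D, with a wild-type GALC line, were compound-treated. Residual GALC activity was then read as fluorescence from 0.1 mM final HMU-β-gal at pH 5.2; higher signal means activation.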
Chain of UniProt P54803 (P54803 whole entry, looked up): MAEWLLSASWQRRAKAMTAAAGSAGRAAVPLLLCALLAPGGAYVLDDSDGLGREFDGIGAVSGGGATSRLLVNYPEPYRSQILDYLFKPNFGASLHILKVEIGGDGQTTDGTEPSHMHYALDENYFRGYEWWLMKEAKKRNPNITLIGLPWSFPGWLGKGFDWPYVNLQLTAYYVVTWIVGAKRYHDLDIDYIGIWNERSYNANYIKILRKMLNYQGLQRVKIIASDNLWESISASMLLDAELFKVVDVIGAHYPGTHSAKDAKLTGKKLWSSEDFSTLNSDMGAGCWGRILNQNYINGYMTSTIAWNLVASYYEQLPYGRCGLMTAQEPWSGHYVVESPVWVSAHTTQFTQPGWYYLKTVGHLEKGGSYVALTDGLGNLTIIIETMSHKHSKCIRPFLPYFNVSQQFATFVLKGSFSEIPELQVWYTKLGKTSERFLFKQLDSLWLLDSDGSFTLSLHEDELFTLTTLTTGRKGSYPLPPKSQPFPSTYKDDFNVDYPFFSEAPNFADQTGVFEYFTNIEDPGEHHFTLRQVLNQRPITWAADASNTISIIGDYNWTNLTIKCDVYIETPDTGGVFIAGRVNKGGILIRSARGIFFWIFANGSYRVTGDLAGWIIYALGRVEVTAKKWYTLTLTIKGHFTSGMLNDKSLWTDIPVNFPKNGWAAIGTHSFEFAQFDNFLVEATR
Regarding `COc1cccc(C(=O)N(Cc2ccc(N(C)C)cc2)Cc2ccco2)c1`, the “activation” value is inactive: -15.1%.

`O=C(CSc1nc2c([nH]c3ccccc32)c(=O)n1-c1ccc(Cl)cc1)NCc1ccccc1`: the “activation” value is inactive: -12.8%.

Turning to `CC(C)CCCC(C)NCCC(C)C` (stereo not drawn), the “activation” value was inactive: 5.48%.

Regarding `COc1ccc(CCNC(=O)CSc2cc(=O)n(C)c3ccccc23)cc1OC`, the “activation” value is inactive: -18.4%. For the molecule `Cc1ccc2sc(N(CCCN(C)C)C(=O)c3ccco3)nc2c1C`, the “activation” value is inactive: -15.4%. Take `COc1cc(C(=O)Nc2sc3c(c2C(N)=O)CCC(C)C3)cc(OC)c1OC` (stereo not drawn): the “activation” value is inactive: -8.06%. In the case of `CCn1c(=O)c(=O)n(CC)c2cc(N3CCCCC3)c(NC(=O)c3ccc(OC)c(OC)c3)cc21` it was inactive: -11.6%; in that of `CCc1ccc(S(=O)(=O)NCc2cccn2Cc2cccc(C)c2)cc1`, inactive: -10.2%; in that of `CC1=C(C(=O)Nc2cc(Cl)ccc2C)C(c2ccccc2F)n2ncnc2N1` (stereo not drawn), inactive: -5.05%. The same measure for `CN1CCN(C(CNC(=O)C(=O)Nc2ccccc2C#N)c2ccc3c(c2)OCO3)CC1` (stereo not drawn): inactive: -7.56%. For the molecule `CCCN(CCC)CCNC(=O)CS(=O)Cc1nc(-c2ccc(OC)c(OC)c2)oc1C` (stereo not drawn), the “activation” value was inactive: -13.6%.

Consider `Cc1ccc(-n2nc(C(=O)N3CCCCC3)c(=O)n(C)c2=O)cc1`, for which the “activation” value was inactive: -16.5%.

On to `COc1ccc(NC(=O)Cn2nnnc2-c2ccccc2F)c(C)c1`, for which the “activation” value was inactive: -2.42%. In the case of `CCCNC(=O)C1CCC(Cn2c(=O)c3sccc3n(CC(=O)N(CC)CC)c2=O)CC1` (stereo not drawn) it was inactive: -27.5%; in that of `COC(=O)c1ccc(NC(=O)CC2C(=O)N(c3cccc(F)c3)C(=O)N2CC(C)C)cc1` (stereo not drawn), inactive: -16.5%; in that of `NCC(=O)O`, inactive: 11.2% [at 23.8 µM]. Turning to `COc1cccc(C(=O)Nc2nc3c(s2)CCCC3)c1`, the “activation” value is inactive: -11%. For the molecule `CN(Cc1ccccc1)C(=O)C(=O)Nc1ccc2nc3n(c(=O)c2c1)CCCCC3`, the “activation” value was inactive: 3.77%. For `CNc1ccc(-c2nc(-c3ccccn3)no2)cc1[N+](=O)[O-]`, the “activation” value was inactive: -3.39%. As for `COc1ccc(-n2c(=O)c3ccc(C(=O)NCc4ccc(C)cc4)cc3n(CC(=O)Nc3cccc(F)c3)c2=O)cc1`, the “activation” value was inactive: -29.3%.

As for `Cc1ccc(CNC(=O)c2cc3cc(C)ccc3n2C)cc1`, the “activation” value is inactive: -10.5%. On to `COc1ccc(CN2C(=O)N(c3cccc(C)c3)C(=O)C2CC(=O)Nc2ccc(F)cc2)cc1OC` (stereo not drawn), for which the “activation” value is inactive: -12.3%. The same measure for `CCOC(=O)c1cc(NC(=O)c2ccc(C)cc2)c(=O)n2c1oc1ccccc12`: inactive: -1.76%; for `CCOc1cc(CNCCSc2nnnn2C)ccc1OCc1ccc(Cl)cc1Cl`: inactive: -8.99%. The same measure for `Cc1ccc(NC(=O)CN2C(=O)COc3ccc(S(=O)(=O)N4CCCCC4)cc32)cc1Cl`: inactive: -9.95%; for `COCCCNC(=O)Cn1c(=O)n(-c2ccccc2)c(=O)c2c1c1cc(OC)ccc1n2C`: inactive: -13.4%; for `CCOc1ccc(C2c3[nH]c4ccccc4c3CCN2C(=O)CSc2ccccc2)cc1` (stereo not drawn): inactive: 13.2%. For the molecule `CC1C(=O)Nc2ccc(S(=O)(=O)Nc3ccccc3Br)cc2NC1=O` (stereo not drawn), the “activation” value is inactive: -8.28%.

The values above are taken from PubChem BioAssay AID1159614 (National Center for Advancing Translational Sciences (NCATS), 2016).
